# Test results taken from PubChem BioAssay AID1347073 (National Center for Advancing Translational Sciences (NCATS), 2019).
# About 200 (0.44%) of roughly 45,000 compounds were called active. Inconclusive results (about 7%) are left out. The call rests on the fitted dose curve; in most records, active means well fitted activation curve with a large enough effect; inconclusive means small, poorly fitted or top-dose-only effect; inactive means no such curve, though single readings can be large or run the other way. Some of the results follow.
# Assay: qHTS of TDP-43 Inhibitors: NCGC Sytravon Library Screen; further: 0% is about no effect; nearly all actives have a fitted effect of over 55% in size
# Conditions: yeast TDP-43 toxicity rescue, BacTiter-Glo growth, 24 h; series mostly up to 46.1 µM; growth rescue (activation): at the top concentration
# Procedure, shortened: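 TDP-43-expressing yeast, pregrown in raffinose, seeded at OD600 0.02 in galactose medium with compound for 24 hr at 30 deg C. Growth read by BacTiter-Glo luminescence, so rescue of toxicity appears as activation.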
row,Compound,growth rescue (activation)
1,Cc1ccc(NC(=O)CCC(=O)OC(C)C(=O)c2ccccc2)cc1 (stereo unspecified),inactive: 4.67%
2,COC(=O)c1c(C)[nH]c(C=Nc2ccc(OC)cc2)c1C,inactive: 12.6%
3,Cc1c(Br)c([N+](=O)[O-])nn1CC(=O)N(C)Cc1ccccc1,inactive: 19.9%
4,O=S(=O)(Nc1ncccn1)c1ccc(NC(=S)NCCc2ccc(Cl)cc2)cc1,inactive: -1.23%
5,O=C1c2ccccc2C(=O)N1CC(O)COc1ccc(Br)cc1 (stereo unspecified),inactive: 10.6%
6,Cc1cccc(OCc2nnc(SCC(=O)N3CCCCC3)o2)c1,inactive: 27.8%
7,Cc1ccc(C(=O)CS(C)(=O)=O)cc1,inactive: 27.9%
8,CCOC(=O)C1(Cc2cccc(Cl)c2)CCCN(C(=O)c2cnn(CC)c2)C1 (stereo unspecified),inactive: -4.65%
9,Cc1nc2ccccn2c1/C(O)=C1\C(=O)C(=O)N(CCN(C)C)C1c1cccnc1 (stereo unspecified),inactive: -4.57%
10,Cn1c(SCC(=O)Nc2ccc(N3CCOCC3)cc2)nnc1-c1ccco1,inactive: -7.01%
11,Cc1ccc(S(=O)(=O)Nc2cc(=O)[nH]c(SCc3ccccc3Cl)n2)cc1,inactive: -7.5%
12,CC(NS(=O)(=O)c1ccc(Br)cc1)C(=O)NCC1CCCO1 (stereo unspecified),inactive: -0.852%
13,CCn1c(/C=C/c2ccccc2Cl)nc2ccccc2c1=O,inactive: 14%
14,O=C(CCCN1C(=O)/C(=C/c2cccs2)SC1=S)Nc1ccccc1O,inactive: 4.06%
15,COc1cc(/C=N/NC(=O)/C(=C\c2ccc3c(c2)OCO3)NC(=O)c2ccccc2)ccc1O,inactive: 7.71%
16,COCCN(C(=O)CCC(=O)Nc1cc(C)on1)C(C(=O)NC1CCCC1)c1ccccc1F (stereo unspecified),inactive: -23.1%
17,CN1CCCN(S(=O)(=O)c2cccc(Cl)c2Cl)CC1,inactive: 6.83%
18,COc1ccc(CN2CCN(C3CCSCC3)CC2CCO)c(C)c1C (stereo unspecified),inactive: 1.57%
19,CCCCOc1ccc(C(=O)Nc2ccc3oc(-c4cccnc4)nc3c2)cc1,inactive: 7.66%
20,COc1ccccc1S(=O)(=O)Nc1cc(C)nn1-c1ccc(C)cc1,inactive: 25.6%
21,COc1ccc(OC)c(N(CC(=O)Nc2ccc3c(c2)OCCO3)S(C)(=O)=O)c1,inactive: 19.7%
22,NS(=O)(=O)c1ccc(NC(=O)c2ccc(-c3ccccc3)cc2)cc1,inactive: -10.3%

row,Compound,growth rescue (activation)
1,CC(=O)N1c2ccccc2C(=O)OC1c1cccnc1 (stereo unspecified),inactive: -13.2%
2,CCCNC(=S)N1CCN(C)CC1,inactive: -12.3%
3,CC1CCC2(CC1)NC(=O)N(CC(=O)NCc1cccs1)C2=O (stereo unspecified),inactive: -18.8%
4,Cc1c([C@@H]2C[C@H]3CN(Cc4cccc(Cl)c4)C(=O)[C@]34CCCN24)cnn1C,inactive: 11.9%
5,Cc1nn(CC(=O)NC2CC2)c(C)c1S(=O)(=O)NC(C)(C)C,inactive: 17.9%
6,COc1ccc2c(c1OC)C(=O)N(c1ccc(F)cc1)C2,inactive: -5.24%
7,CCOc1cc(/C=C/c2cccc[n+]2C)ccc1OCC(=O)Nc1ccc(C)cc1,inactive: 3.09%
8,COc1cc(CNC(=O)C2CCCN2S(=O)(=O)c2ccccc2)cc(OC)c1OC (stereo unspecified),inactive: -11.4%
9,CCOC(=O)C1CCN(S(=O)(=O)c2ccc(Cl)s2)CC1,inactive: 5.44%
10,COc1ccc(Cl)cc1NC(=O)C/C(C)=N/NC(=O)COc1ccc(C)cc1,inactive: 7.25%
11,COc1ccc(CN(C)C(=O)Cn2ccsc2=N)cc1OC,inactive: -11.9%
12,O=C(NC1CCN(S(=O)(=O)c2ccc(Cl)c(F)c2)CC1)c1cccnc1,inactive: 15.6%
13,COC(=O)c1ccc(CN2CCN(CCc3ccccc3)C(CCO)C2)cc1 (stereo unspecified),inactive: -2.42%
14,O=S(=O)(c1ccc2c(c1)OCCO2)N1CCc2ccccc21,inactive: 8.23%
15,O=C(Nc1ccccc1C(F)(F)F)c1ccc(CN2CCC(Cc3ccccc3)CC2)cc1,inactive: 1.82%
16,CCC1(c2ccccc2)NC(=O)N(CC(=O)NCc2ccc(F)cc2)C1=O (stereo unspecified),inactive: -4.41%
17,O=C1NC(=O)N(c2ccccc2)C1=O,inactive: 4.26%
18,O=C(CCN1C(=O)S/C(=C\c2cccs2)C1=O)NC1=NCCS1,inactive: 7.47%
19,O=C(O)CC(C(=O)NCc1ccccc1)C1CCCO1 (stereo unspecified),inactive: 16.7%
20,Cc1cc([N+](=O)[O-])nn1CCCC(=O)Nc1cccc(Cl)c1Cl,inactive: 29.6%
21,C[C@@H](N)C(=O)NC[C@H]1CC[C@H](C(=O)N[C@@H](Cc2ccccc2)C(=O)O)CC1,inactive: -21.7%
22,COC(=O)c1cc(NS(=O)(=O)c2ccc(N3CCOCC3)c(N)c2)cc(C(=O)OC)c1,inactive: -9.83%

row,Compound,growth rescue (activation)
1,CCOc1cc(C)c(Cl)cc1S(=O)(=O)NC1CC(C)(C)NC(C)(C)C1,inactive: 5.96%
2,C=CCn1c(SCC(=O)Nc2cccnc2Cl)nnc1-c1ccccc1F,inactive: -5.57%
3,CN(CC(=O)Nc1c(Cl)cccc1Cl)C(=O)Cc1ccsc1,inactive: -3.4%
4,C=CCNC(=S)NNC(=O)c1cc(O)ccc1O,inactive: -9.52%
5,N#CC(Cc1ccc(OC(F)F)cc1)c1nc2ccccc2[nH]1 (stereo unspecified),inactive: -12.2%
6,CCN(c1ccccc1)S(=O)(=O)c1ccc(Cl)c(NC(=O)CN(C)C2CCN(C)CC2)c1,inactive: 7.77%
7,CCOC(=O)CCC(=O)Nc1ccc([N+](=O)[O-])cc1C,inactive: -7.89%
8,O=C(C1CCCO1)N1CCN(C(=S)Nc2ccc(F)c(Cl)c2)CC1 (stereo unspecified),inactive: -3.31%
9,O=C(Nc1cccc(OCC(=O)N2CCOCC2)c1)c1cccc([N+](=O)[O-])c1,inactive: 11.3%
10,COC(=O)c1sc(NC(=O)/C=C/c2ccc(C)cc2)nc1C,inactive: 12.5%
11,COc1ccc(S(=O)(=O)N2C(=O)/C(=C3\SC(N)=NC3=O)c3ccccc32)cc1,inactive: 21.8%
12,CCOc1cc(N2CCOCC2)c(OCC)cc1NC(=O)COC(=O)c1c(CC)noc1C,inactive: 5.69%
13,O=C1CCCN1S(=O)(=O)c1ccccc1,inactive: -10.8%
14,O=C(NC(Cc1c[nH]c2ccccc12)C(=O)N1CCOCC1)c1cccs1 (stereo unspecified),inactive: -0.206%
15,CCOc1cc(N2CCOCC2)c(OCC)cc1NC1=NCCCCC1,inactive: 26.5%
16,COc1ccc(S(=O)(=O)N2CCN(C)CC2)cc1NC(=O)c1ccccc1,inactive: 4.61%
17,Cc1cc(C)c(C)c(S(=O)(=O)N2CCN(CC(=O)Nc3ccc([N+](=O)[O-])cc3)CC2)c1C,inactive: 19.9%
18,COC(=O)Cc1c(C)c2ccc(OCC(=O)c3ccc(OC)c(OC)c3)cc2oc1=O,inactive: -6.79%
19,COC(=O)c1ccc(/C=C/C(=O)c2cccc(OC)c2)cc1,inactive: 22.4%
20,CCOc1cc(NC(=S)NCc2ccco2)c(OCC)cc1NC(=O)CC(C)C,inactive: 7.63%
21,O=C(CCSc1nc(-c2ccco2)cc(C(F)(F)F)n1)N1CCCc2ccccc21,inactive: 7.8%
22,Cc1cccc(NC(=O)C2C3C=CC(O3)C2C(=O)O)c1C (stereo unspecified),inactive: -2.13%

row,Compound,growth rescue (activation)
1,C(=N\N1CCOCC1)/c1cn(-c2ccccc2)nc1-c1ccccc1,inactive: -21%
2,COc1ccc(NC(=O)c2c3c(nc4ccccc24)CCN(Cc2ccccc2)C3)c(OC)c1,inactive: 7.17%
3,CCCCc1n(CC(=O)c2ccc(Cl)cc2)c2ccccc2[n+]1C,inactive: -12.2%
4,O=C(Cn1cc(C(F)(F)F)cc(Cl)c1=O)Nc1cc(S(=O)(=O)N2CCOCC2)ccc1Cl,inactive: -0.63%
5,Cc1nnc(SCC(=O)NNC(=O)c2ccc(Br)cc2)n1C,inactive: -9.78%
6,O=C(CSc1nc2ccccc2o1)Nc1nc(-c2ccccc2)c(-c2ccccc2)s1,inactive: 16.4%
7,Cc1ccccc1C1CC(c2cccs2)=NN1S(C)(=O)=O (stereo unspecified),inactive: 1.57%
8,CCn1cc(C(=O)O)c(=O)c2cnc(N3CCN(C(=S)Nc4ccccc4)CC3)nc21,inactive: 7.71%
9,Cc1c(N2C(=O)C3C4C=CC(C4)C3C2=O)c(=O)n(-c2ccccc2)n1C (stereo unspecified),inactive: 10.4%
10,CCOc1ccccc1NC(=O)Cc1csc(COc2cccc(C)c2)n1,inactive: 6.68%
11,COCCN(C(=O)c1csnn1)C(C(=O)NC1CCCCC1)c1ccc(Cl)cc1 (stereo unspecified),inactive: -3.86%
12,COc1cccc(C2C(C(=O)c3cc4ccccc4o3)=C(O)C(=O)N2c2cc(C)on2)c1OC (stereo unspecified),inactive: 8.39%
13,CC1(C)CC(CCNS(=O)(=O)c2ccccc2)(c2ccccc2)CCO1 (stereo unspecified),inactive: 3.13%
14,COc1ccccc1-c1cc2nc(C)c(CCC(=O)NCc3ccc(F)cc3)c(C)n2n1,inactive: 19%
15,COc1ccc(C2=NC(CO)(CO)CO2)cc1,inactive: 10.1%
16,Cc1ccc(N2C(=O)NC(NS(=O)(=O)c3ccccc3)(C(F)(F)F)C2=O)cc1 (stereo unspecified),inactive: 16.3%
17,CCOC(=O)CSc1nc2c(cnn2-c2ccc(F)cc2)c(=O)[nH]1,inactive: 15.8%
18,Cc1ccc(NC(=O)c2cncc(Br)c2)cc1S(=O)(=O)N(C)C,inactive: 4.56%
19,CN(C)C(=S)SCCn1c(N)nc(N(C)C)nc1=O,inactive: 7.56%
20,C/C(=N\Nc1ccc(F)cc1F)c1ccc(Br)s1,inactive: 23.8%
21,COc1ccc(C2C=C(C)Nc3nc4ccccc4n32)cc1 (stereo unspecified),inactive: -35.3%
22,CCc1nc2c(OCCOc3ccc(F)cc3)cccn2c1N(C)C(=O)c1cccs1,inactive: -19.9%

row,Compound,growth rescue (activation)
1,CC1=C(C(=O)NC2CC(C)(C)Cc3c2cnn3-c2ccc(C)cc2)OCCO1 (stereo unspecified),inactive: 31.1%
2,Cc1cccc(CNC(=O)CC2C(=O)NCCN2C2CCCC2)c1 (stereo unspecified),inactive: 7.71%
3,COc1ccccc1OCC(=O)Nc1ccc(S(=O)(=O)N2CCN(C)CC2)cc1,inactive: 2.64%
4,CCc1nnc(NC(=O)CCn2cnc3ccccc3c2=O)s1,inactive: 1.26%
5,Cc1ccc(N(CCC(=O)NC(C)(C)C)S(=O)(=O)c2ccc(C)cc2)cc1,inactive: 11.3%
6,CC(=O)OCCNC(=O)Cn1cnc2c1c(=O)n(C)c(=O)n2C,inactive: 11.5%
7,Oc1ccc(N2CCN(Cc3cc4c(cc3Br)OCCO4)CC2)cc1,inactive: 4.96%
8,CC(C)(C)C1CCC(C(=O)NCCc2ccc(S(N)(=O)=O)cc2)CC1 (stereo unspecified),inactive: 12.1%
9,C=CCN(C(=O)CCC(=O)Nc1cc(C)on1)C(C(=O)NC1CCCC1)c1ccc(C)cc1 (stereo unspecified),inactive: -15.9%
10,COC(=O)c1cc(OC)c(OC)cc1NC(=O)Nc1cccc(C(C)=O)c1,inactive: -3.88%
11,COc1ccc2nc3ccccc3nc2c1NC(=O)c1ccc(Br)cc1,inactive: 8.57%
12,Cc1ccc(-n2nc(CC#N)c(C#N)c2N)cc1Cl,inactive: -8.34%
13,CCc1ccc(S(=O)(=O)N2CCCC(N3CCN(c4ccc(OC)cc4)CC3)C2)cc1 (stereo unspecified),inactive: 14.6%
14,CC(C)(C)C(=O)Nc1ccc(N2CCN(S(C)(=O)=O)CC2)cc1,inactive: 1.76%
15,CCOC(=O)c1cnc2c(Cl)c(Cl)ccc2c1NCCN1CCOCC1,inactive: 4.15%
16,COc1cc(/C=C/C(=O)O)ccc1OS(=O)(=O)c1ccc(C)cc1,inactive: 1.99%
17,Cc1cc(NS(=O)(=O)c2ccc(NC(=O)CSc3nnc(-c4ccco4)n3N)cc2)nc(C)n1,inactive: 6.46%
18,CCCS(=O)(=O)N1CCC(C(=O)NCCCN(CC)c2cccc(C)c2)CC1,inactive: 34.3%
